Screen size: about 39,000 compounds; about 220 (0.56%) showed activity. The list shows a part of the results.
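Note: static incubation at 37 °C against the wild-type strain, values averaged over two biological replicates.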

This experiment concerns Escherichia coli K-12 BW25113. The experiment in a line: relative growth (OD600 normalised to plate interquartile mean) (fraction); higher = less growth inhibition, active = 0.2 or less. The settings on record: 50 µM; LB; incubation time: overnight (16-24 h).
With `CCN1[C@@H]2c3ccc(-c4ccncc4)c(=O)n3C[C@@H]2[C@@H](CO)[C@@H]1C(=O)NCCc1cn(C)cn1`, the relative growth is inactive: 1.

With `C[C@@H]1CN([C@@H](C)CO)C(=O)Cc2cc(NC(=O)CCC(F)(F)F)ccc2O[C@H]1CN(C)Cc1ccc(Cl)c(Cl)c1`, the relative growth is inactive: 0.978.

As for `Cc1ccc(S(=O)(=O)Nc2ccc3c(c2)C(=O)N([C@H](C)CO)C[C@@H](C)[C@@H](CN(C)CC2CCCCC2)OCCCC[C@@H](C)O3)cc1`, the relative growth was inactive: 0.973.

With `CCCC#Cc1cnc2c(c1)C(=O)N([C@@H](C)CO)C[C@@H](C)[C@H](CN(C)S(=O)(=O)c1cn(C)cn1)O2`, the relative growth was inactive: 1.03.

`COCC(=O)Nc1ccc2c(c1)OC[C@H](C)N(Cc1ccccc1F)C[C@H](C)[C@H](OC)CN(C)C2=O`: the relative growth is inactive: 0.946.

Regarding `[N-]=[N+]=Nc1ccccc1[C@H]1OC(c2ccc(OCCCO)cc2)=N[C@@]1(CCS(=O)(=O)c1ccccc1)C(=O)NCc1ccccc1`, the relative growth is inactive: 0.997.

In the case of `Nc1nnc(-c2cccc(Cl)c2Cl)c(N)n1`, the relative growth is inactive: 0.732.

As for `CC(C)NC(=O)Nc1ccc2c(c1)CC(=O)N([C@H](C)CO)C[C@H](C)[C@H](CN(C)S(=O)(=O)c1ccccc1)O2`, the relative growth was inactive: 1.03.

In the case of `COc1ccc(S(=O)(=O)Nc2cccc3c2O[C@H](CN(C)C(=O)Nc2cccc4ccccc24)[C@@H](C)CN([C@H](C)CO)C3=O)cc1`, the relative growth was inactive: 1.01.

For the compound `C[C@H]1CN([C@@H](C)CO)C(=O)c2cccc(NC(=O)Nc3ccccc3)c2O[C@H]1CN(C)CC1CCCCC1`, the relative growth was inactive: 1.03.

Consider `O=C(C[C@H]1CC[C@@H]2[C@H](COC[C@H](O)CN2S(=O)(=O)c2ccccc2)O1)NCCN1CCCC1`, for which the relative growth is inactive: 1.02.

For `COc1ccc(NC(=O)Nc2ccc3c(c2)CC(=O)N([C@@H](C)CO)C[C@H](C)[C@@H](CN(C)S(C)(=O)=O)O3)cc1`, the relative growth is inactive: 1.02.

As to `C[C@@H]1CN([C@H](C)CO)C(=O)c2cc(NS(=O)(=O)c3cccs3)ccc2O[C@@H](C)CCCCO[C@H]1CN(C)S(=O)(=O)c1ccc(Cl)cc1`, the relative growth was inactive: 1.01.

With `C[C@H](CO)N1C[C@H](C)[C@@H](CN(C)C(=O)c2ccccc2)OCCCC[C@H](C)Oc2ccc(NC(=O)NC3CCCCC3)cc2C1=O`, the relative growth was inactive: 0.985.

Regarding `C[C@@H]1CN([C@@H](C)CO)C(=O)CCCn2cc(nn2)CO[C@@H]1CN(C)C(=O)c1cc(-c2ccccc2)on1`, the relative growth is inactive: 0.99.

`C[C@@H]1CN([C@H](C)CO)C(=O)Cc2cc(NC(=O)Nc3ccc(C(F)(F)F)cc3)ccc2O[C@@H]1CN(C)C(=O)Nc1ccc2c(c1)OCO2`: the relative growth was inactive: 1.04.

Regarding `CN(C)c1cc(NC(=O)CNC(C)(C)C)c(O)c2c1CC1CC3C(N(C)C)C(O)=C(C(N)=O)C(=O)C3(O)C(O)=C1C2=O` (stereo not given), the relative growth is inactive: 1.06.

For the compound `Cc1noc(C)c1S(=O)(=O)N(C)C[C@@H]1Oc2ccc(NC(=O)CCN3CCOCC3)cc2C(=O)N([C@H](C)CO)C[C@@H]1C`, the relative growth is inactive: 1.04.

Turning to `Cc1noc(C)c1NC(=O)Nc1ccc2c(c1)CC(=O)N([C@H](C)CO)C[C@H](C)[C@H](CN(C)Cc1ccc(Cl)c(Cl)c1)O2`, the relative growth was inactive: 0.93.

As for `O=[N+]([O-])c1ccc(/C=C/CN(C/C=C/c2ccc([N+](=O)[O-])cc2)CCCNS(=O)(=O)c2cccc3cnccc23)cc1`, the relative growth was inactive: 1.02.

As to `CCCC(=O)Nc1ccc2c(c1)OC[C@H](C)N(Cc1ccc(-c3ccccn3)cc1)C[C@H](C)[C@@H](OC)CN(C)C2=O`, the relative growth is inactive: 0.981.

As for `C[C@@H]1CN([C@@H](C)CO)C(=O)c2cc(/C=C/c3ccccc3)cnc2O[C@H]1CN(C)S(=O)(=O)c1cn(C)cn1`, the relative growth was inactive: 0.979.

On to `Oc1cc(O)c2c(c1)OC(c1ccc(O)c(O)c1)C(O)C2` (stereo not given) [CIANIDANOL [+-catechin]], for which the relative growth was inactive: 0.987.

As to `COc1ccc(NC(=O)N(C)C[C@H]2Oc3ccc(NS(=O)(=O)c4cn(C)cn4)cc3C(=O)N([C@H](C)CO)C[C@@H]2C)cc1`, the relative growth was inactive: 0.988.

With `Nc1ccc(CCNc2ncnc3c2ncn3[C@@H]2O[C@H](CO)[C@@H](O)[C@H]2O)cc1`, the relative growth was inactive: 0.986.

Turning to `C[C@@H]1CN([C@H](C)CO)C(=O)c2cc(NS(=O)(=O)c3ccc(Cl)cc3)ccc2O[C@@H](C)CCCCO[C@H]1CN(C)C(=O)Nc1ccccc1`, the relative growth was inactive: 1.02.

Take `C[C@H](CO)N1C[C@H](C)[C@H](CN(C)S(=O)(=O)c2ccc(F)cc2)Oc2c(NC(=O)c3cnccn3)cccc2C1=O`: the relative growth is inactive: 1.01.

For the compound `C[C@@H]1CCCCO[C@@H](CN(C)C(=O)Nc2ccc(C(F)(F)F)cc2)[C@@H](C)CN([C@H](C)CO)C(=O)c2cc(NC(=O)c3ccncc3)ccc2O1`, the relative growth is inactive: 0.953.

In the case of `C[C@@H]1CN([C@@H](C)CO)C(=O)c2cccc(NC(=O)NC3CCCCC3)c2O[C@@H]1CN(C)Cc1ccc(Oc2ccccc2)cc1`, the relative growth is inactive: 1.01.

Take `Nc1nnnn1CC(=O)OCC(=O)Nc1ccccc1`: the relative growth is inactive: 0.996.

In the case of `O=C(C1=C[C@@H](c2ccc(Br)cc2)C[C@@H](OCc2ccc(CO)cc2)O1)N1CCN(Cc2ccccc2)CC1`, the relative growth is inactive: 1.01.

Consider `C[C@H](CO)N1C[C@H](C)[C@@H](CN(C)Cc2ccc(C(=O)Nc3ccccc3N)cc2)OCc2cn(nn2)CCCC1=O`, for which the relative growth was inactive: 0.976.

Turning to `CC(C)CC#Cc1ccc2c(c1)O[C@H](CN(C)C(=O)C1CCOCC1)[C@H](C)CN([C@H](C)CO)S2(=O)=O`, the relative growth was inactive: 0.973.

Regarding `C[C@H]1CN([C@@H](C)CO)C(=O)CCCn2cc(nn2)CO[C@H]1CN(C)S(=O)(=O)c1ccc(Oc2ccccc2)nc1`, the relative growth is inactive: 0.991.

Consider `COc1ccc(C)c2c1CCCC2=O`, for which the relative growth is inactive: 1.02.

Consider `NC(=O)Nc1ccc(C(=O)O)cc1`, for which the relative growth is inactive: 1.01.

For the compound `COc1ccc(NC(=O)N(C)C[C@@H]2OCCCC[C@@H](C)Oc3ccc(NS(=O)(=O)c4ccc(Cl)cc4)cc3C(=O)N([C@H](C)CO)C[C@@H]2C)cc1`, the relative growth is inactive: 0.987.

On to `Cc1ccc(S(=O)(=O)N(C)C[C@H]2Oc3ccc(NC(=O)Nc4ccc(C(F)(F)F)cc4)cc3CC(=O)N([C@H](C)CO)C[C@@H]2C)cc1`, for which the relative growth was inactive: 1.01.

For the compound `Cc1noc(C)c1NC(=O)N(C)C[C@H]1Oc2cc(C#CCN(C)C)ccc2S(=O)(=O)N([C@@H](C)CO)C[C@H]1C`, the relative growth was inactive: 0.964.

As to `O=C(O)CNC(=O)c1ccccc1`, the relative growth was inactive: 1.02.

Regarding `CC(=O)OC1CC2(C)C(CC(O)C3C4(C)CCC(O)C(C)C4CCC32C)C1=C(CCC=C(C)C)C(=O)O` (stereo not given), the relative growth was inactive: 1.13.

On to `C[C@@H]1CN([C@H](C)CO)C(=O)c2cc(NS(=O)(=O)c3ccccc3)ccc2O[C@@H](C)CCCCO[C@@H]1CN(C)Cc1ccccc1`, for which the relative growth is inactive: 1.04.

Turning to `C[C@H]1CCCCO[C@H](CN(C)C(=O)Nc2ccc(C(F)(F)F)cc2)[C@@H](C)CN([C@@H](C)CO)C(=O)c2cc(NS(=O)(=O)c3cn(C)cn3)ccc2O1`, the relative growth was inactive: 0.891.

As to `C[C@H](CO)N1C[C@H](C)[C@H](CN(C)Cc2ccc(Oc3ccccc3)cc2)Oc2ccc(NC(=O)Cc3cn(C)c4ccccc34)cc2CC1=O`, the relative growth was inactive: 0.975.

As for `C[C@H]1CN([C@@H](C)CO)C(=O)CCCn2cc(nn2)CO[C@H]1CN(C)S(=O)(=O)c1ccc(Oc2ccccc2)cc1`, the relative growth was inactive: 0.994.

Consider `Cc1cc2c(cc1C)N=C(C(F)(F)F)CC(c1cccs1)=N2`, for which the relative growth is inactive: 1.01.

As to `COc1ccc(S(=O)(=O)Nc2ccc3c(c2)C(=O)N([C@H](C)CO)C[C@@H](C)[C@@H](CN(C)C(=O)Nc2c(C)noc2C)OCCCC[C@@H](C)O3)cc1`, the relative growth was inactive: 1.

Consider `Cc1noc(C)c1NC(=O)N(C)C[C@H]1OCCCC[C@H](C)Oc2ccc(NS(=O)(=O)c3ccc(F)cc3)cc2C(=O)N([C@@H](C)CO)C[C@@H]1C`, for which the relative growth is inactive: 0.991.

For `C[C@H](CO)N1C[C@H](C)[C@H](CN(C)Cc2ccc(C(F)(F)F)cc2)OCCCC[C@H](C)Oc2ccc(N(C)C)cc2C1=O`, the relative growth was inactive: 0.999.

On to `C[C@@H]1CN([C@@H](C)CO)C(=O)c2cc(C#CC3(O)CCCC3)cnc2O[C@@H]1CN(C)S(=O)(=O)c1ccccc1`, for which the relative growth was inactive: 0.996.

As to `COc1ccc(NC(=O)Nc2ccc3c(c2)CC(=O)N([C@H](C)CO)C[C@H](C)[C@H](CN(C)Cc2ccc(Oc4ccccc4)cc2)O3)cc1`, the relative growth is inactive: 1.01.

As for `COCC(=O)N1C[C@H](C)[C@H](OC)CN(C)C(=O)c2ccc(NC(=O)Nc3cccc(F)c3)cc2OC[C@@H]1C`, the relative growth was inactive: 0.995.

Consider `C[C@H](O)C#Cc1ccc2c(c1)O[C@H](CN(C)C(=O)C1CCCCC1)[C@H](C)CN([C@@H](C)CO)S2(=O)=O`, for which the relative growth is inactive: 1.

Regarding `C[C@@H]1CN([C@H](C)CO)C(=O)c2cc(NC(=O)CCN3CCOCC3)ccc2O[C@H]1CN(C)C(=O)NC1CCCCC1`, the relative growth is inactive: 1.02.

With `C=C1CCC(=O)C(C)CCC2C1CC2(C)C` (stereo not given), the relative growth is inactive: 0.92.

On to `C[C@@H]1CN([C@H](C)CO)C(=O)c2cc(N(C)C)ccc2O[C@@H](C)CCCCO[C@@H]1CN(C)Cc1ccc(C(F)(F)F)cc1`, for which the relative growth was inactive: 0.979.

`C[C@@H]1CN([C@@H](C)CO)C(=O)Cc2cc(NC(=O)NC3CCCCC3)ccc2O[C@H]1CN(C)Cc1ccc(C(F)(F)F)cc1`: the relative growth is inactive: 1.02.

As to `Cc1noc(C)c1S(=O)(=O)Nc1ccc2c(c1)CC(=O)N([C@H](C)CO)C[C@H](C)[C@H](CN(C)C(=O)Nc1ccccc1)O2`, the relative growth was inactive: 0.975.

For the compound `Cc1cc2c(cc1C(=O)c1ccc(C(=O)O)cc1)C(C)(C)CCC2(C)C`, the relative growth is inactive: 1.04.

Take `O=C1N[C@H](Cc2c[nH]c3ccccc23)COC(=O)[C@@H](Cc2ccc(F)cc2)CCC=CC[C@@H]1CC(=O)N(CCO)Cc1ccccc1`: the relative growth is inactive: 0.995.

The record behind these values is the supplement of paper PMC9446081.
